Results published in PubChem BioAssay AID686978 (National Center for Advancing Translational Sciences (NCATS), 2013).
Out of some 420,000 compounds screened, about 64,000 (15%) were called active. Inconclusive results, whose numbers are uncertain, are shown with a selection of clear calls. The call rests on the fitted dose curve; in most records, active means well fitted inhibition curve with a large enough effect; inconclusive means small, poorly fitted or top-dose-only effect; inactive means flat fitted curve, though single readings scatter. Potencies of inconclusive entries are left out as doubtful fits.

Test: qHTS for Inhibitors of human tyrosyl-DNA phosphodiesterase 1 (TDP1): qHTS in cells in absence of CPT; further: nearly all actives have a fitted effect of over 55% in size
Conditions: DT40 Tdp1-/- hTDP1 cells, no CPT, ATP luminescence, 48 h; activity change, negative = growth inhibition: at 46.2 µM (top of the series)
Summary of the method: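 Readout: luminescence from CellTiter-Glo after 30 min in the dark at RT. Cells: DT40 Tdp1-/- with stable hTDP1, 400/well. Exposure: compounds alone, ≥48 hr, 37 °C.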
On the % scale 0 is the no-effect control and ±100 the full control effect; potency means the concentration at half of the fitted maximal effect; tags describe the fitted curve by direction and shape.

Structure (SMILES)	Potency	activity change, negative = growth inhibition
Cc1ccc(C)c(N2CCN(C(=O)Cn3cccc3)CC2)c1	inactive	–
CNC(=O)[C@@H]1CCC(=O)N1	inactive	–
CCCSc1nsc(NC(=O)CC)n1	inconclusive [inhibitor, single point]	–
CC1CCC(NC(=O)c2cnccn2)CC1 (stereo not given)	inactive	–
N#CC1(c2ccccc2)CCCN1C(=O)c1ccccc1Br (stereo not given)	inconclusive [inhibitor, partial curve]	–
O=C(NN1CCN(Cc2ccccc2)CC1)c1ccc(N2CCOCC2)c([N+](=O)[O-])c1	inconclusive [inhibitor, single point]	–
CCc1ccc(CN(C)Cc2nc(Cc3cccc(C(F)(F)F)c3)no2)nc1	inconclusive [inhibitor, single point]	–
Nc1nc2c(ncn2[C@@H]2O[C@H](CNS(=O)(=O)C3CC3)[C@@H](O)[C@H]2O)c(=O)[nH]1	inactive	–
COc1ccc(S(=O)(=O)Nc2ccc3c(c2)C(=O)N([C@H](C)CO)C[C@H](C)[C@@H](CN(C)S(=O)(=O)c2cccs2)O3)cc1	inconclusive [inhibitor, single point]	–
Cn1cc(CN2CCCC(CNC(=O)c3ccc4c(c3)OCO4)C2)c2ccccc21 (stereo not given)	inconclusive [inhibitor, single point]	–
O=C(C1=C(O)C(=O)N(CC2CCCO2)C1c1ccccc1Cl)c1ccco1 (stereo not given)	inactive	–
CCCCN(C(=O)C1CC(=O)N(c2ccc(OC)cc2OC)C1)c1c(N)n(CC(C)C)c(=O)[nH]c1=O (stereo not given)	inactive	–
Cc1cc(C(=O)Nc2ccc(OCc3ccccc3)cc2)c(C)o1	inconclusive [inhibitor, partial curve]	–
COc1ccc(N2CCN(C(=O)NCc3ccc(C)cc3)CC2)cc1	inconclusive [inhibitor, partial curve]	–
CCCCNC(=O)CN(Cc1ccco1)S(=O)(=O)c1ccc(C(C)=O)cc1	inconclusive [inhibitor, partial curve]	–
OCCN(CC#CCC(O)(c1ccccc1)C1CCCC1)CCO (stereo not given)	inconclusive [inhibitor, single point]	–
COc1ccc(NC(=O)CN(c2ccccc2C)S(C)(=O)=O)c(OC)c1	inactive	–
CC1CCc2cc(F)ccc2N1S(=O)(=O)c1ccc(F)cc1 (stereo not given)	inconclusive [inhibitor, single point]	–
OCCC1CN(Cc2ccc3nsnc3c2)CCN1C1CCCCC1 (stereo not given)	inactive	–
COc1ccc2nc(N=Nc3ccc(N(C)C)cc3)sc2c1	inconclusive [inhibitor, partial curve]	–
O=C(N/N=C/c1ccccc1OC(=O)c1ccc2c(c1)OCO2)c1ccccc1	active: 4.11 µM	–
CCOC(=O)CNC(=O)CSc1ncnc2c1cnn2-c1ccc(OC)cc1	inconclusive [inhibitor, single point]	–
Cc1csc(NC(=O)Cc2c(F)cccc2Cl)n1	inconclusive [inhibitor, partial curve, poor fit]	–
COc1cc([N+](=O)[O-])c2nc(C=NNC(N)=S)ccc2c1	–	inconclusive: -35.4% [inhibitor]

Structure (SMILES)	Potency	activity change, negative = growth inhibition
Nc1nnn(CC(=O)N/N=C/c2cccc(Cl)c2)n1	inactive	–
Cc1sc2ncnc(N3CCC(C(=O)N(C)CC(=O)Nc4cccc(F)c4)CC3)c2c1C	active: 13 µM	–
COc1cccc(CNC(=O)c2cc(S(=O)(=O)N3CCCCC3)ccc2C)c1	inconclusive [inhibitor, single point]	–
COc1ccc(Cl)cc1NC(=O)C[n+]1cccc(C)c1	inconclusive [inhibitor, single point]	–
CN(C(=O)CSc1ncc(C(F)(F)F)cc1Cl)c1c(N)n(Cc2ccccc2)c(=O)[nH]c1=O	inconclusive [inhibitor, single point]	–
CC(=O)c1c(C)[nH]c(C(=O)OCc2ccc(F)cc2Cl)c1C	active: 13 µM	–
O=C(NCCc1ccc(Cl)cc1)C(=O)Nc1cc2c3c(c1)CC(=O)N3CCC2	inconclusive [inhibitor, single point]	–
O=C(Nc1cc(Cl)ccc1-n1cncn1)c1ccc([N+](=O)[O-])s1	inconclusive [inhibitor, partial curve, poor fit]	–
CCC1S/C(=N/N=C/c2cccs2)NC1=O (stereo not given)	inconclusive [inhibitor, partial curve]	–
O=C(NCCSCc1ccco1)Nc1cccc(Cl)c1	inconclusive [inhibitor, single point]	–
CCOC(=O)c1ccc(Nc2cc3ccccc3c(=O)[nH]2)cc1	inconclusive [inhibitor, single point]	–
CCC(=O)c1ccc(OCC(=O)Nc2ccc3nc(C)sc3c2)cc1	inconclusive [inhibitor, partial curve]	–
O=C(NC1CCCCC1)c1ccccc1NC(=O)C1CC(=O)N(c2ccc(Cl)cc2)C1 (stereo not given)	inactive	–
Cc1cc(-n2c(C)cc(C(=O)CSc3ccc4c(c3)OCCO4)c2C)no1	active: 25.9 µM	–
COC(CNC(=O)Cc1c(C)nc2c(-c3ccccc3)c(C)nn2c1C)OC	inactive	–
O=c1c2oc3ccccc3c2n(Cc2ccccc2F)c(=O)n1Cc1ccco1	inactive	–
CC1CCCN(S(=O)(=O)c2ccc(S(=O)(=O)NC(C)c3cccs3)cc2)C1 (stereo not given)	inconclusive [inhibitor, single point]	–
COc1cccc(CNCCOCCO)c1OC	inactive	–
OCC(O)/C=N/Nc1nc(Nc2ccccc2)nc(Nc2ccccc2)n1 (stereo not given)	inconclusive [inhibitor, partial curve]	–
CN1CCN(c2ccc(S(=O)(=O)N3CCOCC3)cc2NC(=O)CC(C)(C)C)CC1	inactive	–
CC1CCCN(S(=O)(=O)c2ccc(NC(=O)C3CCN(C(=O)C(C)(C)C)CC3)cc2)C1 (stereo not given)	inconclusive [inhibitor, single point]	–
Oc1ccccc1-c1nc(/C=C/c2ccc(F)cc2)no1	inactive	–
CN(CC1CCCO1)S(=O)(=O)c1ccc(C(=O)NCc2ccccc2)cc1 (stereo not given)	inconclusive [inhibitor, partial curve]	–
CC(=O)N1c2c(ccc3ccccc23)C(C)CC12CCCCC2 (stereo not given)	inconclusive [inhibitor, single point]	–

Structure (SMILES)	Potency	activity change, negative = growth inhibition
Cc1c(Cl)cccc1N1CC(c2nc3ccccc3n2Cc2ccccc2F)CC1=O (stereo not given)	inconclusive [inhibitor, single point]	–
CCN(CC(=O)Nc1cccc(OC)c1)c1ncnc2sc(C)c(C)c12	active: 20.6 µM	–
Cc1cccc(N2CCN(C(=O)Nc3ccc(F)cc3)CC2C)c1 (stereo not given)	inconclusive [inhibitor, single point]	–
CCCCCSc1nnc2c(n1)OC(c1ccc(C)s1)N(C(C)=O)c1ccccc1-2 (stereo not given)	active: 8.2 µM	–
CCCCCN(C(=O)CCC(=O)OCC(=O)N(C)c1ccccc1)c1c(N)n(CCCC)c(=O)[nH]c1=O	inactive	–
CCOc1ccc(NC(=O)N2CCN(S(C)(=O)=O)CC2)cc1	inconclusive [inhibitor, full curve, poor fit]	–
O=C(NCc1ccccc1)C1=C[C@@H](c2ccccc2)C[C@@H](OCc2ccc(CO)cc2)O1	inconclusive [inhibitor, single point]	–
CCc1nc2ccc(C(=O)NCc3ccc4c(c3)OCO4)cn2c1N(CC)Cc1cccc(Br)c1	inconclusive [inhibitor, single point]	–
CCCn1cc(SCC(=O)Nc2nnc(C)s2)c2ccccc21	inconclusive [inhibitor, single point]	–
CCS(=O)(=O)c1c(Nc2ccc(F)c(Cl)c2)sc(C(=O)c2ccccc2)c1N	inconclusive [inhibitor, single point]	–
COCCCN(C(=O)CSCC(=O)Nc1ccc(C)cc1)c1c(N)n(Cc2ccccc2)c(=O)[nH]c1=O	inactive	–
O=[N+]([O-])c1ccc(CN2CCN(c3ccc([N+](=O)[O-])cc3)CC2)cc1	active: 18.4 µM	–
COc1ccc(OCC(=O)NNC(=O)c2ccccc2OCc2c(C)noc2C)cc1	inactive	–
COc1ccc(N(CC(=O)Nc2cccc(N(C)S(C)(=O)=O)c2)S(=O)(=O)c2ccc(C)cc2)cc1	inconclusive [inhibitor, single point]	–
Fc1c(F)c(-n2nnc3ccccc32)c(F)c(F)c1Cl	inactive	–
Cc1oc(-c2cccc(Cl)c2)nc1CN1CCC(C(=O)NCc2ccco2)CC1	inconclusive [inhibitor, single point]	–
O=c1[nH]c2c(s1)C(c1ccccc1)C1C3CCC(C3)C1S2 (stereo not given)	inconclusive [inhibitor, full curve]	–
Cc1cccc(NC(=O)Cn2c(=O)n(Cc3ccc4c(c3)OCO4)c(=O)c3ccccc32)c1	inconclusive [inhibitor, single point]	–
COc1ccc(CCN2C(=O)CC(NCCc3ccc(S(N)(=O)=O)cc3)C2=O)cc1OC (stereo not given)	–	inconclusive: -30.5% [inhibitor]
Cc1nc(NC(=O)C2CC2)sc1C(=O)NC1CCCCC1	inconclusive [inhibitor, single point]	–
O=C(COc1ccccc1Cl)NCCC1=CCCCC1	inconclusive [inhibitor, partial curve]	–
CC(=O)Nc1ccc(OCCCN2CCC(C(O)(c3ccccc3)c3ccccc3)CC2)cc1	inconclusive [inhibitor, single point]	–
